Data taken from the supplement of paper PMC10126150.
Values marked as one replicate rest on one cluster of the flow cell; about a third of the high ones do not repeat.

Tested on: ATP
Assay: switch fluorescence ratio, 500 uM ATP over buffer (Cy3 cluster intensity, sum of 5 cycles each) (fold (ratio)); higher = stronger signal-on switching upon ATP binding; sequences stand for … in TCGTCGGCAGCGTCAGATGTGTATAAGAGACAGTTTTTTTTTTTTTTTTTTTTTTTTT…TC
Conditions: aptamer strand: ATP DNA aptamer (quencher-CACCTGGGGGAGTATTGCGGAGGAAGG + anchor), 100 nM annealed; ATP concentration: 500 uM; one replicate
Method in brief: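 After annealing to 100 nM quencher-labelled ATP aptamer, Cy3-labelled switching-strand clusters on a modified Illumina MiSeq flow-cell were imaged in selection buffer. A second image followed after 15 min with 500 uM ATP at 22 °C, and five such buffer/ATP cycles were done, each separated by NaOH stripping and re-annealing. The fluorescence ratio, averaged per switch-domain sequence, is summed target-cycle over summed buffer-cycle Cy3 intensity per cluster, with clusters outside 100-1000 RFU excluded.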
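Also: ATP exposure 15 min at 22 °C before imaging.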

Row | Sequence | switch fluorescence ratio
1 | TAACAAACGG | 1.22
2 | CTGTTAATG | 0.982
3 | ACGAATTATT | 1.07
4 | GCAATTTAAG | 0.99
5 | GAAGGGTTGA | 1
6 | ATTAGGTTAC | 1.07
7 | ATGCGGGTCG | 0.997
8 | CCTTAGTATA | 1.1
9 | ATAACGCCAT | 1.14
10 | TGATGGAACT | 1.04
11 | AGGGTGAACA | 0.945
12 | GTTTCGAACA | 0.991
13 | AAATGTGGCC | 1.02
14 | AGAACGCCTT | 1.02
15 | ATAGATAAGT | 0.999
16 | AAGGAGACAT | 0.96
17 | GACGTGGGGG | 1
18 | AGCTTTCCGT | 1.07
19 | TAGTTAACCA | 1.03
20 | AAAATAGTCA | 1.02
21 | ACGGGACTGA | 1.11
22 | ACGGATTAGC | 1.04
23 | GTGTTAGAAC | 0.95

Row | Sequence | switch fluorescence ratio
24 | AAAGCGTTCC | 2.57
25 | TCGAAGATAA | 1.05
26 | TGCCCTCGTT | 0.989
27 | CAGACTAACA | 1.1
28 | TACGCTACCG | 1.27
29 | TACTGAAATT | 1.03
30 | CGTTATTTGC | 1.02
31 | GTACATTT | 1
32 | CCGGTGATGT | 1.02
33 | CGGCGGATAT | 1.02
34 | CTTTAATGGT | 0.993
35 | TATATATCTT | 1.03
36 | ATCTATCGAC | 1.06
37 | CTAAGTAGTT | 0.981
38 | CTCCGACTGT | 3.39
39 | CTTTGAGGCT | 1.02
40 | AAGGAGTCGC | 1.03
41 | CATGTGCGCC | 0.993
42 | TACACATGTA | 1.02
43 | ACGATCAGG | 1.2
44 | GCATCCGTAT | 1.04
45 | ATACTCTTCA | 1.06
46 | ATTTACCGGC | 0.979

Row | Sequence | switch fluorescence ratio
47 | GCAAAACAAT | 1
48 | AATTGGTGAG | 1.03
49 | TGTTATAGCT | 1.06
50 | TATGGATGTT | 0.993
51 | TCGAGATTGT | 0.99
52 | GCCGCCTACA | 0.929
53 | ATAGTATCGG | 1.01
54 | TGGCCCGCCG | 0.965
55 | TGAGAGCTG | 0.977
56 | GGCCCAAGTA | 0.995
57 | GTCATACGTT | 1.03
58 | CAACTTGCTA | 1.01
59 | ATTATTTCGG | 0.986
60 | TTAGTAAACT | 0.99
61 | AGCCACCGTT | 1.05
62 | ACTAATTTCA | 1.06
63 | CTGTCTCCAT | 1.01
64 | CGTCCCTCCG | 2.19
65 | GGCGCGGCGC | 0.981
66 | TTCCTCGAGG | 0.985
67 | ATCTGAGGGC | 0.961
68 | TTGGTGTGGT | 0.995
69 | TGCCTGCTCC | 1.08

Row | Sequence | switch fluorescence ratio
70 | GAAGTTGGTT | 1
71 | GGCACATGAC | 1.1
72 | GAGGGATCCG | 0.962
73 | AACGTGGCTT | 0.975
74 | AACCCAGTCG | 1.06
75 | CGGAACTGAG | 1.03
76 | CGCGAGCACG | 1.05
77 | GTGATCGCTT | 1.03
78 | TGGCTTTCCC | 1.03
79 | GTCCCTGAAA | 0.981
80 | ACAGATGCTT | 1.02
81 | ATAGCGATCG | 1.01
82 | GCGGCCTTGG | 0.994
83 | CGGGGCACGG | 0.994
84 | GAAAGAGACC | 1.03
85 | ATCCTTTAGG | 1.05
86 | TGACGATGAC | 1.59
87 | CGCACGGCCC | 1.3
88 | TCTGTTTTCG | 1.03
89 | CAGTGGTGGA | 1.02
90 | CTATCTAGAT | 1.01
91 | GGCCAGGAC | 1.39
92 | ATGGACCAAG | 1.02

Row | Sequence | switch fluorescence ratio
93 | TTCCACTTCA | 1.12
94 | ACGTGCGCGG | 1.06
95 | AGGTTGTGTT | 0.966
96 | TCCCCCTTCG | 1.35
97 | GTGTTCACGG | 0.984
98 | GTCGACTGGG | 1
99 | GTTGTGGCAG | 0.95
100 | AGGATTGCTC | 1
101 | ATGGCAGGGA | 0.993
102 | CCTAATTGGG | 0.98
103 | TACGCTTCAA | 1.01
104 | GGCAGACCGA | 1.04
105 | TGATTCTACC | 1.03
106 | CGGCACGACC | 1.08
107 | GGTATCTATA | 1.03
108 | AAATGCGACA | 0.993
109 | CTGGTTGTGC | 1.03
110 | CATTCTTATT | 1.01
111 | AAGGGTTCAG | 0.979
112 | GAGTTAAACG | 1.09
113 | TCGGATGTTA | 0.993
114 | CGTACGATGC | 1.13
115 | TCTATGTCGT | 0.983

Row | Sequence | switch fluorescence ratio
116 | GGCGGGAAAT | 0.992
117 | GTGGACACAG | 0.964
118 | TCTTAGGGAA | 0.976
119 | CTGCCGTTCT | 1.09
120 | ACGTCACTTT | 1.52
121 | CCATCCGTAT | 1.66
122 | GAGGCGAAAT | 0.988
123 | CGCTTAGGTG | 1.64
124 | ACGTGACGAG | 0.98
125 | CCGGGAGGG | 1.61
126 | CATGGTGAC | 1.02
127 | TTGGAGTTAT | 1
128 | TGACGGCCCG | 1.01
129 | CCCTTTGGGT | 0.991
130 | ACAAGGACAG | 1.06
131 | CGACCGTGGC | 1.23
132 | ATGTCTTCGA | 0.982
133 | GAAGCCCATT | 0.997
134 | TACTGATTGA | 1.02
135 | ATAACAGAG | 0.958
136 | GACCGTTATA | 1.08
137 | TACACCAAAA | 1.1
138 | ATGAGTGCCC | 1.03

Row | Sequence | switch fluorescence ratio
139 | CTATATATTG | 0.975
140 | AGATCTG | 1.07
141 | GGGCGAACAT | 0.997
142 | TGAAGTCCAC | 0.989
143 | GAGATCTAGG | 0.997
144 | AGTGCGATAT | 1.23
145 | GAGGGGTCAT | 1.02
146 | TTTGGTTTAA | 0.957
147 | TTCGAAGAGT | 0.974
148 | TTCTGCCCTC | 1.05
149 | CTGATGCTCA | 1.04
150 | ATACCATTAA | 0.989
151 | GGGGCCTATG | 1.02
152 | GTACGACAGG | 1.06
153 | TGGTATATGC | 0.99
154 | ACACGCCGCA | 1.15
155 | CCGCGTGGGG | 1.09
156 | TTTTTCAGTC | 0.95
157 | TTAATGTTTT | 1
